Among all 310,000 compounds or so, about 2,200 (0.71%) showed an effect of 50% or more. Effects have a minus sign here. The list shows a part of the results.
Target: human ether-à-go-go-related gene (hERG) potassium channel (human, UniProt Q12809)
Experiment: primary screen, population patch clamp on CHO cells stably expressing hERG

Chain of human ether-à-go-go-related gene (hERG) potassium channel (Q12809 whole entry, looked up): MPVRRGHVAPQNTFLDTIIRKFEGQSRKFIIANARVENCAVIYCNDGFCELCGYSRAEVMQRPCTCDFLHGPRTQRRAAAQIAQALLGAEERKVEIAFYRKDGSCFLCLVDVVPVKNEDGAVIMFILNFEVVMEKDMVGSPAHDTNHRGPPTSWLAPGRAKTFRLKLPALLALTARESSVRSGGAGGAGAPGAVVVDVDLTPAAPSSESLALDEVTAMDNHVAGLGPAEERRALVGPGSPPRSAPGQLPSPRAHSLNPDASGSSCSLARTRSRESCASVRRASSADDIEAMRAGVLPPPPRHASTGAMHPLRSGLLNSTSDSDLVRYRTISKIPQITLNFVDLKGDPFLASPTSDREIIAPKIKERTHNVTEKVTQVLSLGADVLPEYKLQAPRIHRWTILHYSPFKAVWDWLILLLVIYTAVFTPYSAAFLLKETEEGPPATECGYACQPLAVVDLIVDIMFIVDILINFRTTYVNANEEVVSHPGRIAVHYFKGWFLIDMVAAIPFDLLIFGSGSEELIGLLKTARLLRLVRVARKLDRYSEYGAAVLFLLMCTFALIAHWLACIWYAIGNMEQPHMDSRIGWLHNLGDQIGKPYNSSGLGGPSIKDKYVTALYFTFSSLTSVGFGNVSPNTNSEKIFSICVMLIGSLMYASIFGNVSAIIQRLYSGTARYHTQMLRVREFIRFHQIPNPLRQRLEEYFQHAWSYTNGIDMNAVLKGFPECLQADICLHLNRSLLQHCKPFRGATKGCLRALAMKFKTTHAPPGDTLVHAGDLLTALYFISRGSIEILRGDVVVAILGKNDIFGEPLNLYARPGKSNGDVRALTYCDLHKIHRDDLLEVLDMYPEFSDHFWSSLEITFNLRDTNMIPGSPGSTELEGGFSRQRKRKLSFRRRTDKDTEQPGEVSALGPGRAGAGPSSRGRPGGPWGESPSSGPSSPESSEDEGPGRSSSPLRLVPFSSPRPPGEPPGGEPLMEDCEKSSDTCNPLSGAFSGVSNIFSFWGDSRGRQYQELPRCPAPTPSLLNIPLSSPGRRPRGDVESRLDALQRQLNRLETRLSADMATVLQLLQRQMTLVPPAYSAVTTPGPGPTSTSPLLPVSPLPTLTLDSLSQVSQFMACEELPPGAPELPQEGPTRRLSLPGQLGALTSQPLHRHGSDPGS

Row | Compound | hERG current change (%, negative = inhibition) at 1uM [%]
1 | COc1ccc(N2CCN(C(=O)c3ccc4[nH]c(C)c(C)c4c3)CC2)cc1 | 15.1
2 | Cn1c(SCC(=O)Nc2ccccc2)nnc1C(F)(F)F | 9.84
3 | COC(=O)C1=C(C)N(c2ccc(Cl)cc2)/C(=C/c2ccc(O)cc2)C1=O | 16.2
4 | CC(C)c1ccc(/C=N/NC(=O)c2c(Cl)cnn2C)cc1 | 6.86
5 | CCCCC(CC)CNC(=O)CC1Nc2c3ccccc3nc(=S)n2C1=O (centres unmarked) | 12.2
6 | Cc1ccc(C(=O)Nc2oc(-c3ccccc3)cc2C#N)cc1 | 14.5
7 | Cn1nc(CC(=O)Nc2cccnc2N2CCOCC2)c2ccccc2c1=O | -0.663
8 | CCC1CCCCN1C(=O)N[C@@H](Cc1ccccc1)C(=O)O (some centres unmarked) | 15.1
9 | O=C(CN(Cc1ccccc1)S(=O)(=O)c1ccccc1)NC1CC1 | 5.25
10 | COc1cccc2c(N/N=C/c3ccccc3)cc(C)nc12 | 5.33
11 | NC(=O)c1ccc(NC(=O)Nc2ccc3c(c2)OCO3)cc1 | 16.4
12 | CCOc1ccc(C(=O)CSc2nnc(N)s2)cc1 | 6.56
13 | Cc1cc(Br)ccc1NC(=O)CN(C)C(=O)Cn1c(=O)cnc2ccccc21 | 6.85
14 | Nn1c(SCC(=O)Nc2ccc3c(c2)OCO3)nnc1C1CCCCC1 | 5.34
15 | CC(Oc1ccccc1)C(=O)Nc1nnc(S(=O)(=O)N2CCCCCC2)s1 (centres unmarked) | 11.4
16 | COc1ccc(CCNC(=O)C(=O)NCCOc2ccccc2Cl)cc1OC | 31.8
17 | N#CC1=C(N)N(c2ccc(Br)cc2)C2=C(C(=O)CCC2)C1c1cccnc1 (centres unmarked) | -6.1
18 | COC(=O)C1=C(C)NC(C)=C(C(=O)OC)C1c1ccccn1 | 9.97
19 | COc1cc(C(=O)NCCN2CCCC2)cc(OC)c1OC.Cl | 11.7
20 | CCOc1ccccc1C(=O)NC(C)c1ccc2c(c1)OCO2 (centres unmarked) | -4.7

Row | Compound | hERG current change (%, negative = inhibition) at 1uM [%]
21 | CCOC(=O)C(C)NC(=O)c1cn(-c2ccc(OC)cc2)c(=O)c2ccccc12 (centres unmarked) | 15.9
22 | CCC(=O)Nc1ccc(-c2ccc(NC(=O)CC)c(OC)c2)cc1OC | 10.9
23 | CCCS(=O)(=O)N1CCCC(C(=O)NCC(OC)OC)C1 (centres unmarked) | 17.1
24 | O=C(NC(=S)N1CCCC1)c1ccccc1Cl | 14.9
25 | O=C(CCC1CCCC1)Nc1ccc(C(=O)NCc2cccnc2)cc1 | -1.9
26 | Cn1cnc(S(=O)(=O)NCc2ccccc2)c1 | 8.31
27 | O.Oc1cc(O)c2c(c1)O[C@H](c1ccc(O)c(O)c1)[C@@H](O)C2 | 13.5
28 | COC(=O)Cn1c(=NC(=O)C2CC2)sc2c(C)cc(C)cc21 | 12.1
29 | Cc1ccc(C(=O)NCC(=O)NCCSc2ccc(Br)cc2)cc1 | 0.26
30 | O=C(NCc1ccc2c(c1)OCO2)c1cc([N+](=O)[O-])ccc1N1CCCCC1 | 7.22
31 | O=C(Nc1ccccc1)c1ccc(CSc2ncccn2)cc1 | 17.7
32 | Cc1ccc(-n2ncc3c(=O)n(CC(N)=O)cnc32)cc1 | 15
33 | Cc1cc(C)nc(-n2nc(C)cc2NC(=O)CNC(C)c2ccccc2)n1 (centres unmarked) | -13.3
34 | Cc1cc(NCCCN(C)C)n2c(nc3ccccc32)c1C#N | 3.12
35 | CCN1CCN(C(=O)c2ccc(CN(c3ccc(C)c(C)c3)S(C)(=O)=O)cc2)CC1 | -2.14
36 | CCOC(=O)C(C(C)=O)=C1SC2CS(=O)(=O)CC2S1 (centres unmarked) | -4.74
37 | c1ccc(C(CN2CCOCC2)c2ccccc2)cc1 | 5.96
38 | COc1ccccc1NC(=S)NCc1ccc(F)cc1 | 11.6
39 | CSc1ncc(C(=O)O)n1-c1ccc(F)cc1 | 12
40 | CCc1nc(SCc2ccccn2)c2c(=O)n(C)c(=O)n(C)c2n1 | 7.61

Row | Compound | hERG current change (%, negative = inhibition) at 1uM [%]
41 | CCC(=O)Nc1ccc(NC(=O)c2cc3ccccc3o2)cc1 | -5.21
42 | CCCN1CC23C=CC(O2)C(C(=O)O)C3C1=O (centres unmarked) | 12.4
43 | CC(Oc1ccccc1)C(=O)N1CCC2(CC1)CC(=O)c1ccccc1O2 (centres unmarked) | -30.4
44 | COC(=O)c1ccc(-n2c(C)cc(/C=N/n3cnnc3)c2C)cc1 | 5.88
45 | Cc1ccc(SC(C)c2nc(-c3cccnc3)no2)cc1 (centres unmarked) | -3.31
46 | CC(C)(C)NC(=O)/C(=C\c1ccccc1F)NC(=O)c1ccc([N+](=O)[O-])cc1 | 1.34
47 | O=C(NCCN1CCOCC1)C1CCCN(S(=O)(=O)c2ccc(F)cc2)C1 (centres unmarked) | 2.96
48 | COc1ccc(OCc2cc(C(=O)N3CCN(C4CCCC4)CC3)no2)c(Cl)c1 | 4.81
49 | CS(=O)(=O)c1cnc(-c2ccccc2)nc1Sc1ccc(F)cc1 | -0.0273
50 | Cc1ccc(N=C2NC(=O)CS2)c(C)c1 | 6.77
51 | CC(C)CNC(=O)COC(=O)c1cncc(Br)c1 | 2.79
52 | O=C(O)CCCn1cc(NC(=O)c2cccc(F)c2)cn1 | 7.53
53 | O=C(CCN1N=C(c2ccccc2)CCC1=O)NCCCN1CCOCC1 | 17.2
54 | Cc1csc(NC(=O)C2CCN(S(=O)(=O)c3ccc4c(c3)oc(=O)n4C)CC2)n1 | -27.5
55 | COc1ccc(NC(=O)C2CCC(=O)N2S(=O)(=O)c2ccc(C)cc2)cc1Cl (centres unmarked) | 16.4
56 | COc1ccccc1NC(=S)N(Cc1ccc(C)cc1)Cc1ccccn1 | 2.27
57 | O=C(CNc1ccc(F)cc1Cl)Nc1cccc(S(=O)(=O)N2CCCCC2)c1 | 9.38
58 | CCCCCCCN1N=C(C)C(C(=O)c2ccccc2)C1=O (centres unmarked) | 0.523
59 | O=C(NCCSc1ccc(Br)cc1)c1ccccc1 | 8.73

Reference: article PMC4336329 (PLoS ONE, 2015)
